In patent US20190177376A1 (NAVIGO PROTEINS, published 2019):

Assays:
Natalizumab (IgG4) = assay: SPR, Biacore 3000, CM5 chip, 25 C, Langmuir 1:1
[1] = biological target: T1, IgG1 (column of Table 2: human IgG1-Fc or Cetuximab) (human); assay: SPR, Biacore 3000, CM5 chip, 25 C, Langmuir 1:1
T1 construct: It cannot be told whether the IgG1 column was measured with human IgG1-Fc or with Cetuximab; also called Cetuximab (IgG1)

Chain of Natalizumab (IgG4) (VH, as listed by the source, chain 1 of 2): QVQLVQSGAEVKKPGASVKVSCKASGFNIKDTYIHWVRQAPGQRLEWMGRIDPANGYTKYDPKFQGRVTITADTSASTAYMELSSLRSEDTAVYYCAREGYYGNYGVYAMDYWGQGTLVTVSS
Chain of Natalizumab (IgG4) (VL, as listed by the source, chain 2 of 2): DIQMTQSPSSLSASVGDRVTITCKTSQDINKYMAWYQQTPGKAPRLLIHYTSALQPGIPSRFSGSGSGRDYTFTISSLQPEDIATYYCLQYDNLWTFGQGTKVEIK

Row | Binder | Kd (Natalizumab (IgG4)) [nM] | Kd [1] [nM]
1 | cs25 (SEQ ID NO: 26) (designed binder, also called cs25-2) IAAKHDKDQQAAFYEILHLPNLTEDQRNAFIQSLRDDPSVSLEILAEAKKLNDAQAPKWSHPQFEK | 3.27 | 4.24
2 | cs47h4 (SEQ ID NO: 45) (designed binder) IAAKHDKDQQAAFYEILHLPNLTEEQRNAFIQSLRDDPSVSLEVLGEAQKLNDSQAPKWSHPQFEK | 3.11 | 4.1
3 | cs47h3 (SEQ ID NO: 44) (designed binder) IAAKHDKDQQAAFYEILHLPNLTEDQRNAFIQSLRDDPSVSLEVLGEAQKLNDSQAPKWSHPQFEK | 4.05 | 4.78
4 | cs74h2 (SEQ ID NO: 43) (designed binder) IAAKFDEAQQAAFYEILHLPNLTEEQRNAFIQSLRDDPSVSLEILGEAKKLNDAQAPPWSHPQFEK | 2.72 | 3.48
5 | cs74h1 (SEQ ID NO: 42) (designed binder) IAAKFDEAQQAAFYEILHLPNLTEDQRNAFIQSLRDDPSVSLEILGEAKKLNDAQAPPWSHPQFEK | 1.2 | 1.64
6 | cs14 (SEQ ID NO: 20) (designed binder, also called cs14-3; 1I/11A/28N/35R/42L) IAAKHDKDQQAAFYEILHLPNLTEDQRNAFIQSLRDDPSVSLEILGEAKKLNDAQAPPWSHPQFEK | 2.51 | –
7 | cs27 (SEQ ID NO: 30) (designed binder, also called cs27-2; 1I/11A/35R/42L) IAAKFDEAQQAAFYEILHLPNLTEEQRNAFIQSLRDDPSVSLEVLGEAQKLNDSQAPKWSHPQFEK | 2.54 | –
